The test addresses Nonstructural protein 3 (Zika virus) (UniProt A0A024AXB9).
[1] abbreviates: PRVABC59, Concentration 15.0 uM, Number of replicates 1.0.
The mark [2] stands for this setting: PRVABC59, Concentration 10.0 uM, Number of replicates 1.0.
The mark [3] stands for this setting: PRVABC59, Concentration 50.0 uM, Number of replicates 1.0.

Out of some 2,700 compounds screened, about 160 (5.9%) showed an effect of 50% or more. The list shows a part of the results.

The values that follow come from ChEMBL document CHEMBL5606458, “ASAP - ZIKV NS2B-NS3 protease fluorescence single point” (2024).

Sequence of UniProt A0A024AXB9 (A0A024AXB9 as listed by the source): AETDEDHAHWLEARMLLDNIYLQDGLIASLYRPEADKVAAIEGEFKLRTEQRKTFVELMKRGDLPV

On to `Cc1cc(CCNC(=O)[C@]2(c3ccc(F)cc3)CCCNC2)c2cn[nH]c2c1`, for which the inhibition reads like this: (PRVABC59, Concentration 49.5 uM, Number of replicates 2.0, Standard deviation 1.1507413897454284 %) 2.45%; (PRVABC59, Concentration 99.01 uM, Number of replicates 2.0, Standard deviation 0.3594880040383957 %) 4.86%; (PRVABC59, Concentration 198.0 uM, Number of replicates 2.0, Standard deviation 2.037097453243353 %) 8.97%. With `N#Cc1cccnc1N1CCN(C(=O)c2cc(Cl)ccc2NS(=O)(=O)c2ccc(Oc3ccccc3Cl)cc2)CC1`, under setting [1], the inhibition is -2.76%. `Cc1cnccc1NC(=O)c1cccc(C(F)(F)F)n1`: the inhibition was -3.2% (PRVABC59, Concentration 49.5 uM, Number of replicates 2.0, Standard deviation 1.2676468851520968 %); -4.6% (PRVABC59, Concentration 99.01 uM, Number of replicates 2.0, Standard deviation 0.2009180729488889 %); -5.02% (PRVABC59, Concentration 198.0 uM, Number of replicates 2.0, Standard deviation 0.32519699091514426 %).

With `O=Cc1ccc(N2CCC(C(=O)NCc3ccccc3Br)CC2)cc1`, the inhibition under setting [2] was 21.6%. Take `COc1ccc(S(=O)(=O)N[C@H]2CC[C@H](C(=O)Nc3nc4ccccc4s3)CC2)cc1`: the inhibition was 4.79% (PRVABC59, Concentration 49.5 uM, Number of replicates 2.0, Standard deviation 1.516279405300169 %); 5.82% (PRVABC59, Concentration 99.01 uM, Number of replicates 2.0, Standard deviation 2.0429029287446374 %); 5.18% (PRVABC59, Concentration 198.0 uM, Number of replicates 2.0, Standard deviation 2.7145967477005732 %).

For the compound `C[C@H]1CCCCN1CCCNC(=O)c1cc(Cl)ccc1NS(=O)(=O)c1ccc(Oc2ccccc2Cl)cc1`, under setting [1], the inhibition came out at 18%. In the case of `O=Cc1ccc(N2CCC(C(=O)Nc3ccccc3I)CC2)cc1`, the inhibition under setting [3] was 24.9%. With `Cc1cc(Br)cc(NC(=O)c2cc(Cl)ccc2NS(=O)(=O)c2ccc(Oc3ccccc3Cl)cc2)c1`, the inhibition under setting [1] is 53.6%. The same measure, in the same setting: to `O=C(NC1CCC(C(F)(F)F)CC1)c1cc(Cl)ccc1NS(=O)(=O)c1ccc(Oc2ccccc2Cl)cc1` (stereo unspecified) belongs 30.2%; to `O=C(c1cc(Cl)ccc1NS(=O)(=O)c1ccc(Oc2ccccc2Cl)cc1)N1CCN(c2ncccn2)CC1`, 7.48%. Regarding `O=Cc1ccc(N2CCC(C(=O)N3CCN(C4CCCC4)CC3)CC2)cc1`, under setting [3], the inhibition is 26.3%. For the compound `O=Cc1ccc(N2CCC(C(=O)Nc3ccc(Oc4ccc(Cl)cc4)cc3)CC2)cc1`, the inhibition under setting [3] turned out to be 10.6%. `Cc1cc(Br)cc(C)c1NC(=O)c1cc(Cl)ccc1NS(=O)(=O)c1ccc(Oc2ccccc2Cl)cc1`: the inhibition under setting [1] stood at 24.9%. For the compound `Cc1cc(CO)c2cccc(Cc3cccc(NC(=O)[C@H](N)CCO)c3)c2n1`, the inhibition runs as follows: (PRVABC59, Concentration 49.95 uM, Number of replicates 2.0, Standard deviation 2.896018531465293 %) 45.5%; (PRVABC59, Concentration 99.9 uM, Number of replicates 2.0, Standard deviation 2.794226811640934 %) 46.8%. With `Cc1cc(CO)c2cccc(Cc3ccccc3NC(=O)[C@@H]3C[C@@H](O)CN3)c2n1`, the inhibition by setting is: (PRVABC59, Concentration 49.95 uM, Number of replicates 2.0, Standard deviation 1.3843880921432699 %) 8.48%; (PRVABC59, Concentration 99.9 uM, Number of replicates 2.0, Standard deviation 1.3436712019086534 %) 23.6%. As for `Cc1cc(CO)c2cccc(Cc3cccc(C(=O)NCc4sccc4C)c3)c2n1`, the inhibition reads like this: (PRVABC59, Concentration 49.95 uM, Number of replicates 2.0, Standard deviation 1.2898911488591764 %) -5.17%; (PRVABC59, Concentration 99.9 uM, Number of replicates 2.0, Standard deviation 0.14681702950115297 %) 6.55%. Take `O=C(NC1C2CC3CC(C2)CC1C3)c1cc(Cl)ccc1NS(=O)(=O)c1ccc(Oc2ccccc2Cl)cc1` (stereo unspecified): under setting [1], the inhibition amounted to 44.9%. On to `NCc1cccc(NC(=O)C2(NC(=O)OCc3ccccc3)CC(F)(F)C2)c1`, for which the inhibition is 0.243% (PRVABC59, Concentration 49.5 uM, Number of replicates 2.0, Standard deviation 1.698538014742072 %); 2.77% (PRVABC59, Concentration 99.01 uM, Number of replicates 2.0, Standard deviation 0.6655619582597831 %); 11.1% (PRVABC59, Concentration 198.0 uM, Number of replicates 2.0, Standard deviation 0.8342115610517613 %).

Turning to `COc1cccc(-c2cc(CNC(=O)c3cc(Cl)ccc3NS(=O)(=O)c3ccc(Oc4ccccc4Cl)cc3)on2)c1`, the inhibition under setting [1] stood at 44.7%. `CNC(=O)c1cncnc1NS(=O)(=O)c1ccc(Oc2ccccc2Cl)cc1`: the inhibition (PRVABC59, Concentration 49.5 uM, Number of replicates 2.0, Standard deviation 0.35115742654912646 %) stood at 12.9%. `O=Cc1ccc(N2CCC(C(=O)NCCc3ccc(Cl)c(Cl)c3)CC2)cc1`: the inhibition under setting [3] is -5.07%. For `Cc1cccc(CN2CCN(C(=O)c3cc(Cl)ccc3NS(=O)(=O)c3ccc(Oc4ccccc4Cl)cc3)CC2)c1`, the inhibition under setting [1] worked out at 9.71%.

On to `CC[C@H](NC(=O)C1CCN(c2ccc(C=O)cc2)CC1)c1cccc(C)n1`, for which, under setting [2], the inhibition was 25.5%. For the compound `O=Cc1ccc(N2CCC(C(=O)N3CCc4ccccc4[C@H]3c3ccccc3)CC2)cc1`, under setting [3], the inhibition was 21.9%. As for `COc1c(Cl)cccc1NC(=O)c1cc(Cl)ccc1NS(=O)(=O)c1ccc(Oc2ccccc2Cl)cc1`, under setting [1], the inhibition is 38.1%.

`Cc1cnccc1NC(=O)CNCC(C)C`: the inhibition by setting is: (PRVABC59, Concentration 49.5 uM, Number of replicates 2.0, Standard deviation 0.771833635199759 %) -2.19%; (PRVABC59, Concentration 99.01 uM, Number of replicates 2.0, Standard deviation 0.34752723419318615 %) -2.29%; (PRVABC59, Concentration 198.0 uM, Number of replicates 2.0, Standard deviation 0.5718035120552976 %) 0.253%. Turning to `Cc1cc(NC(=O)c2[nH]c([C@H]3CCCNC3)nc2C)n[nH]1`, the inhibition reads like this: (PRVABC59, Concentration 49.5 uM, Number of replicates 2.0, Standard deviation 0.8509605500625965 %) -4.49%; (PRVABC59, Concentration 99.01 uM, Number of replicates 2.0, Standard deviation 1.1083243799355795 %) -3.82%; (PRVABC59, Concentration 198.0 uM, Number of replicates 2.0, Standard deviation 1.5192761305229905 %) -2.17%. Consider `O=C(c1cc(Cl)ccc1NS(=O)(=O)c1ccc(Oc2ccccc2Cl)cc1)N1CCCN(c2ccc(C(F)(F)F)cn2)CC1`, for which, under setting [1], the inhibition was determined as 30%. For the compound `O=C(Nc1ccccc1-c1ccccc1)c1cc(Cl)ccc1NS(=O)(=O)c1ccc(Oc2ccccc2Cl)cc1`, under setting [1], the inhibition stood at 36.2%. Consider `O=Cc1ccc(N2CCC(C(=O)NC3CCC(C(F)(F)F)CC3)CC2)cc1` (stereo unspecified), for which the inhibition under setting [3] came to 31.3%.

Take `O=C(NCCc1cc(F)cc(F)c1)c1cc(Cl)ccc1NS(=O)(=O)c1ccc(Oc2ccccc2Cl)cc1`: the inhibition under setting [1] amounted to 32.7%.

Consider `Cc1cccc(NC(=O)CNC(=O)c2cc(Cl)ccc2NS(=O)(=O)c2ccc(Oc3ccccc3Cl)cc2)c1C`, for which the inhibition under setting [1] is 42%. As to `CN(C)C(=O)CN1CCN(C(=O)C2CCN(c3ccc(C=O)cc3)CC2)CC1`, the inhibition under setting [3] came out at 21.2%. In the case of `COc1ccccc1N1CCN(C(=O)Cc2cccc3c(CO)cc(C)nc23)CC1`, the inhibition (PRVABC59, Concentration 99.9 uM, Number of replicates 2.0, Standard deviation 1.6569335540246648 %) is -9.63%.

As to `Cc1cc(Br)c(NC(=O)C2CCN(c3ccc(C=O)cc3)CC2)c([N+](=O)[O-])c1`, the inhibition under setting [3] is 23.8%. For `COc1ccccc1OCCn1cc(C2CCNCC2)c(C)n1`, the inhibition runs as follows: (PRVABC59, Concentration 49.5 uM, Number of replicates 2.0, Standard deviation 3.6020232568569774 %) -1.12%; (PRVABC59, Concentration 99.01 uM, Number of replicates 2.0, Standard deviation 3.6538062236366144 %) -0.198%; (PRVABC59, Concentration 198.0 uM, Number of replicates 2.0, Standard deviation 5.317075123342042 %) 1.08%. Regarding `Cc1nccn1-c1ccc(NC(=O)c2cc(Cl)ccc2NS(=O)(=O)c2ccc(Oc3ccccc3Cl)cc2)cc1`, the inhibition under setting [1] came to 43.8%.

In the case of `N#Cc1c(Cl)cccc1NC(=O)c1cc(Cl)ccc1NS(=O)(=O)c1ccc(Oc2ccccc2Cl)cc1`, the inhibition under setting [1] was 22.8%. As for `O=Cc1ccc(N2CCC(C(=O)NCc3ccc(F)cc3C(F)(F)F)CC2)cc1`, the inhibition under setting [2] was 25.3%. On to `Cc1cc(S(=O)(=O)NCCNC(=O)c2ccc(O)c(NC(=O)c3ccncc3F)c2C)c(C)s1`, for which the inhibition is -0.106% (PRVABC59, Concentration 49.5 uM, Number of replicates 2.0, Standard deviation 1.3575786503928842 %); 0.603% (PRVABC59, Concentration 99.01 uM, Number of replicates 2.0, Standard deviation 1.9146004618852894 %); 1.47% (PRVABC59, Concentration 198.0 uM, Number of replicates 2.0, Standard deviation 1.9819612621227651 %). Turning to `COc1cccc(-c2ccccc2C(=O)Nc2cnn(C)c2)c1F`, the inhibition was -2.02% (PRVABC59, Concentration 49.5 uM, Number of replicates 2.0, Standard deviation 0.655169978409846 %); -2.27% (PRVABC59, Concentration 99.01 uM, Number of replicates 2.0, Standard deviation 0.33643856693736396 %); -0.464% (PRVABC59, Concentration 198.0 uM, Number of replicates 2.0, Standard deviation 0.6973950185443509 %). Turning to `O=C(NCc1cc(C(F)(F)F)ccc1C(F)(F)F)c1cc(Cl)ccc1NS(=O)(=O)c1ccc(Oc2ccccc2Cl)cc1`, the inhibition under setting [1] is 31.9%. For the compound `Cc1cc(CO)c2cccc(C[C@H](NC(=O)c3nc(N)n[nH]3)C(=O)O)c2n1`, the inhibition (PRVABC59, Concentration 49.95 uM, Number of replicates 2.0, Standard deviation 1.7513324927150802 %) is -1.22% and the inhibition (PRVABC59, Concentration 99.9 uM, Number of replicates 2.0, Standard deviation 0.7426854648255038 %) was found to be 4.65%. As to `CC[C@H]1c2cccn2CCN1C(=O)c1cc(Cl)ccc1NS(=O)(=O)c1ccc(Oc2ccccc2Cl)cc1`, under setting [1], the inhibition was 16.5%.

The inhibition is the change of the read-out against control, counted positive when it falls.
